# Test results from PubChem BioAssay AID1794844 (National Center for Advancing Translational Sciences (NCATS), 2023).
# The campaign covered roughly 2,800 compounds. Fewer than 10 were called active. The shares of active, inactive and inconclusive entries below differ from those in the screen. The call rests on the fitted dose curve; in most records, active means well fitted inhibition curve with a large enough effect; inconclusive means small, poorly fitted or top-dose-only effect; inactive means no such curve, though single readings can be large or run the other way. Potencies of inconclusive entries are doubtful fits and often do not repeat.
# Target: Metallo-beta-lactamase type 2 (Klebsiella pneumoniae) (UniProt C7C422)
# Sequence of UniProt C7C422 (C7C422 whole entry, looked up): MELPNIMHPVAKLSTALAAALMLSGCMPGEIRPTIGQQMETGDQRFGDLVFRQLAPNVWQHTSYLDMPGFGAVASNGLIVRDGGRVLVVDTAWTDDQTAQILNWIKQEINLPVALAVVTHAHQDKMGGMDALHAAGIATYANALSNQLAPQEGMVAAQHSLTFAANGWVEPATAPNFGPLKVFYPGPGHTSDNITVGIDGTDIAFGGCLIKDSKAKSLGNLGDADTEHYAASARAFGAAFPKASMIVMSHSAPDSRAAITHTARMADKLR
# Assay: qHTS to identify inhibitors of the New Delhi Metallo-beta-lactamase (NDM): Nitrocefin screen against the machine-based learning selections.
# Details: NDM-1 enzyme, nitrocefin hydrolysis, absorbance 485 nm; series mostly up to 38.4 µM
# Procedure, shortened: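 Hydrolysis by 2 nM NDM-1 was followed by absorbance after >30 min compound preincubation in HEPES pH 7.0 buffer with 1 uM Zn2SO4. For nitrocefin (16.7 uM, 15 min, 485 nm) and meropenem (50 uM, 30 min, 300 nm), each substrate ran on separate plates.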
# Potency means the concentration at half of the fitted maximal effect; tags describe the fitted curve by direction and shape.
row,Structure (SMILES),Potency
1,OCc1cccc(-c2cc3c(cn2)CN(CCc2ccccc2)CCN3)c1,"inconclusive: 43.3 µM [inhibitor, single point]"
2,CNC(=O)[C@@H](c1ccc(Cl)cc1)N1CCC[C@H]1C(=O)NC(C)(C)C,"inconclusive: 24.3 µM [inhibitor, partial curve]"
3,COCCCNC(=O)N1CC(c2nc(CCOCC3CCOCC3)no2)C1,inactive
4,OC1(CN2CCCN(c3nc4ccccc4s3)CC2)CNCCOC1 (stereo not drawn),"inconclusive: 9.45 µM [inhibitor, full curve]"
5,Cc1ccc(O)c(CN2CC[C@@H](c3ccc(F)cc3)[C@H](O)C2)c1,inactive
6,O=C1Cc2c(-c3cccc(CO)c3)n[nH]c2CN1CC1CC1,"inconclusive: 24.3 µM [inhibitor, partial curve, poor fit]"
7,COCCNC(=O)c1ccc2c(c1)N(C)C(CC(=O)Nc1ccc(N)nc1)CO2 (stereo not drawn),inactive
8,CCCS(=O)(=O)N1CCC(Cc2nc(-c3cccnc3)n[nH]2)C1 (stereo not drawn),inactive
9,c1ccc(CNc2ncc(CN3CCC4(CCNCC4)C3)cn2)cc1,"inconclusive: 29.9 µM [inhibitor, single point]"
10,Cc1cccc(C(=O)N2CC[C@@H](NC(=O)c3cnccn3)[C@H](O)C2)n1,inactive
11,CN1CCCC1c1nc(C2CN(C(=O)c3ccsc3)C2)no1 (stereo not drawn),inactive
12,CC(=O)NCC1(COc2cccnc2)C[C@@H](O)[C@@H](O)C1 (stereo partly drawn),"inconclusive: 34.4 µM [inhibitor, partial curve]"
13,CC(C)NC(=O)C[C@@H]1O[C@H](CNCc2cccc(Cl)c2)[C@@H](O)[C@H]1O,"inconclusive: 27.3 µM [inhibitor, partial curve]"
14,OC1(CNc2cc(C(F)(F)F)nc(N3CCCC3)n2)CCCNCC1 (stereo not drawn),"inconclusive: 16.8 µM [inhibitor, partial curve]"
15,COc1ccc(N2CCN(C3CCCN(C(=O)C(C)(C)N)C3)CC2)cc1 (stereo not drawn),"inconclusive: 11.9 µM [inhibitor, partial curve]"
16,CCC1=C(C(=O)OC)C(c2ccccc2OC)N2C(CC(=O)N3CC(C)OC(C)C3)=CSC2=N1 (stereo not drawn),inactive
17,CN1CCCN(C(=O)C2(Oc3ccc4ncccc4c3)CCNCC2)CC1,"inconclusive: 23.7 µM [inhibitor, single point]"

row,Structure (SMILES),Potency
1,O=C(NCc1ccc(C(F)(F)F)cc1)[C@@H]1Cc2nc[nH]c2CN1Cc1ccccn1,"inconclusive: 21.7 µM [inhibitor, partial curve]"
2,CNCCN1C(=O)CC[C@H]2CN(C(=O)c3ccc(Cl)cn3)CC[C@H]21,"inconclusive: 13.4 µM [inhibitor, partial curve]"
3,CC(C)Cc1cc(C(=O)N2C[C@H](C3CC3)[C@@H](N)C2)n(C)n1,inactive
4,COC(=O)NCC(=O)N1CC[C@@H]2[C@@H](CCC(=O)N2CCc2ccccc2)C1,"inconclusive: 29.9 µM [inhibitor, single point]"
5,Cc1nc(CN2CCN(C(C(=O)O)c3cc4ccccc4o3)CC2)cs1 (stereo not drawn),"inconclusive: 8.42 µM [inhibitor, full curve, poor fit]"
6,Cn1cccc1C(=O)NC[C@H]1O[C@@H](CO)[C@@H](O)C1N1CCN(c2ccccc2)CC1 (stereo partly drawn),"inconclusive: 15 µM [inhibitor, partial curve]"
7,CCS(=O)(=O)NCc1nc(-c2ccc(C)cc2)c(-c2ccccn2)[nH]1,"inconclusive: 29.9 µM [inhibitor, single point]"
8,Cc1cnc(C(=O)N2CCC(N3C(=O)C4(CCCC4)C3c3ccccc3)CC2)cn1 (stereo not drawn),inactive
9,Cc1cccc2nc(CNC(=O)c3cccc(C4CCNC4)c3)cn12 (stereo not drawn),"inconclusive: 13.4 µM [inhibitor, partial curve]"
10,CNC(=O)[C@@H](c1ccccc1F)N1CCC[C@H]1C(=O)NCc1cccnc1,"inconclusive: 15 µM [inhibitor, partial curve, poor fit]"
11,COC(=O)c1ccccc1NC(=O)Cn1cccc1-c1nc(-c2ccccc2)no1,inactive
12,Cc1noc([C@@H](C)NCc2cccc(Cl)c2)c1C(=O)O,"inconclusive: 30.6 µM [inhibitor, partial curve, poor fit]"
13,NC(=O)NCCN1CCCC(N2CCN(c3cccc(C(F)(F)F)c3)CC2)C1 (stereo not drawn),"inconclusive: 10.6 µM [inhibitor, single point]"
14,C[C@@H](O)[C@H](N)C(=O)NCc1nc(-c2cccc(F)c2)c(-c2ccccn2)[nH]1,"inconclusive: 15 µM [inhibitor, partial curve]"
15,CNC(=O)[C@@H](c1ccccc1OC)N1CCC[C@H]1C(=O)N(C)CCN(C)C,"inconclusive: 43.3 µM [inhibitor, single point]"
16,COC[C@H]1C[C@@H](NC(=O)Nc2cccnc2)[C@H](O)[C@@H]1O,"inconclusive: 12.2 µM [inhibitor, full curve]"
